Data as given in the supplement of paper PMC7826260.
Some of the results follow. Each Rep nickase domain was tested in vitro on the same pool of single strands (1 h at 37 °C, 3 µM enzyme); the outer parts of the 90-letter strands are left off. Uncut reads are compared with the no-enzyme pool on a log2 scale; uncut sequences lie near 0, cut ones below; no hit call is given. Shares of all reads are compared, so uncut sequences can rise above 0 when many others are cut.

Tests used:
Experiment in all cases: uncleaved DNA left, log2 of reads against the no-enzyme library (log2 ratio); higher = less cleavage (more negative = more Rep cleavage of the k-mer); sequences stand for … in CTCGTCCG…ACCGGAGA
[1] = system: T1, Rep nickase domain of Muscovy duck circovirus
T1 sequence (residues 1-111 of Rep, tag left off): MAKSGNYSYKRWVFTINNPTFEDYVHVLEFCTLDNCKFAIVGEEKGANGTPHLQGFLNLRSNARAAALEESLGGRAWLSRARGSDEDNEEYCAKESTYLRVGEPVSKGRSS
Protocol: (§1)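 A pool of 90-nt single-stranded DNAs with seven random bases just before the constant AC of the nick site (name = the seven bases) was cut by 3 µM recombinant His6-SUMO-tagged Rep nickase domain (300 nM DNA, 50 mM HEPES pH 8.0, 50 mM NaCl, 1 mM MnCl2, 1 h, 37 °C, three replicates). Uncut DNA was amplified and sequenced.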

[2] = system: T2, Rep nickase domain of banana bunchy top virus
T2 sequence (residues 1-94 of Rep, tag left off): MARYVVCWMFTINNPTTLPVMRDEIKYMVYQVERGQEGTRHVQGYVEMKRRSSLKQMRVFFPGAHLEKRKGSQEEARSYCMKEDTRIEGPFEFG
Protocol: as §1

[3] = system: T3, Rep nickase domain of cabbage leaf curl virus
T3 sequence (residues 1-116 of Rep, tag left off): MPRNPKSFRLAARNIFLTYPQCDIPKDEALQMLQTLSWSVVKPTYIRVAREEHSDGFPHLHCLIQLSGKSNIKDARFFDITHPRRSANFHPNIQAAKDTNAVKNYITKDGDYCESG
Protocol: as §1

[4] = system: T4, Rep nickase domain of chickpea chlorotic dwarf virus
T4 sequence (residues 1-124 of Rep, tag left off): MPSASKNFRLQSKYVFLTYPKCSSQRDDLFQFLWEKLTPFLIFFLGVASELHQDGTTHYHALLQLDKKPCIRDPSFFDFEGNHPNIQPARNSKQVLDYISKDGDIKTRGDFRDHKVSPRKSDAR
Protocol: as §1

[5] = system: T5, Rep nickase domain of faba bean necrotic yellows virus
T5 sequence (residues 1-98 of Rep, tag left off): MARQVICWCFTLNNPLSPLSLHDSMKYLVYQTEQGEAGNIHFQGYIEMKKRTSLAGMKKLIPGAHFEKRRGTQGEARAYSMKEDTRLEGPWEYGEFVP
Protocol: as §1

[6] = system: T6, Rep nickase domain of maize striate mosaic virus
T6 sequence (residues 1-117 of Rep, tag left off): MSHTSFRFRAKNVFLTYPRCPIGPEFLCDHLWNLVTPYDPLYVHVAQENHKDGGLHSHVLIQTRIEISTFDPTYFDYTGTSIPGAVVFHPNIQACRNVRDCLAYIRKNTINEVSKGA
Protocol: as §1

[7] = system: T7, Rep nickase domain of porcine circovirus 2
T7 sequence (residues 2-116 of Rep, tag left off): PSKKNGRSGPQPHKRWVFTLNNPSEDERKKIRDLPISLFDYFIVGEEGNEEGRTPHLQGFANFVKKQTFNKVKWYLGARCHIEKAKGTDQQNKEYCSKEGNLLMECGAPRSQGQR
Protocol: as §1

[8] = system: T8, Rep nickase domain of tomato golden mosaic virus
T8 sequence (residues 1-124 of Rep, tag left off): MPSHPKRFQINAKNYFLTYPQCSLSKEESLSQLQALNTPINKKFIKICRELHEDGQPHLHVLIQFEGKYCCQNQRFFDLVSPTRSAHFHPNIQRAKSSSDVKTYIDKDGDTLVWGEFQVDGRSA
Protocol: as §1

[9] = system: T9, Rep nickase domain of tomato yellow leaf curl virus
T9 sequence (residues 1-136 of Rep, tag left off): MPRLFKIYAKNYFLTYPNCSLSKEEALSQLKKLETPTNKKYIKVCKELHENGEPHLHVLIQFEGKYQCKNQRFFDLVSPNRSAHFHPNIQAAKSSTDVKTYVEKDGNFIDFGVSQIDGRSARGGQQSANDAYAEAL
Protocol: as §1

[10] = system: T10, Rep nickase domain of wheat dwarf virus
T10 sequence (residues 1-137 of Rep, tag left off): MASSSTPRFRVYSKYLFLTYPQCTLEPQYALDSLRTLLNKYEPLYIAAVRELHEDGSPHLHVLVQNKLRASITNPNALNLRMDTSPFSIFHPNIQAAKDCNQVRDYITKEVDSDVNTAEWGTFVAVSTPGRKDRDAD
Protocol: as §1

Sequence	uncleaved DNA left (log2) [1]	uncleaved DNA left (log2) [2]	uncleaved DNA left (log2) [3]	uncleaved DNA left (log2) [4]	uncleaved DNA left (log2) [5]	uncleaved DNA left (log2) [6]	uncleaved DNA left (log2) [7]	uncleaved DNA left (log2) [8]	uncleaved DNA left (log2) [9]	uncleaved DNA left (log2) [10]
TCGGCCT	-0.0491	-0.0619	0.000148	-1.09	-0.136	-0.136	-0.322	-0.161	-0.139	-0.147
TAGCCGG	0.0949	0.0106	0.502	1.22	0.018	1.67	0.0813	0.14	0.0186	0.0312
TAATACA	-2.23	0.094	-2.77	-3.21	-0.0691	-2	-3.21	-2.05	-0.0812	-2.97
TTATCCC	-0.00915	0.0113	0.0375	-0.0321	-0.0846	0.0518	-0.0132	-0.0817	0.0831	-0.0123
AACTAGC	0.0785	-0.0619	-0.562	-0.712	-0.00802	-1.21	-0.0361	-0.104	-0.0307	-0.111
TAGACAT	-0.0267	0.0937	0.81	1.93	-0.0465	2.17	-0.943	-0.0238	0.042	0.219
CAGGTAC	0.0641	0.158	0.142	0.395	0.0575	0.0314	0.256	0.134	0.0696	0.182
CCCGTTT	0.318	0.0872	0.362	-1.15	0.101	0.246	0.000743	0.241	0.0864	0.0886
GAAAGGA	0.0625	0.0811	0.263	0.279	0.0625	0.357	0.128	0.159	0.00519	0.119
TGAGGCG	-0.00758	-0.108	-0.865	0.356	-0.0129	-0.701	0.0733	-0.0493	-0.0925	-0.0859
GACCCGC	0.0449	0.0449	0.597	1.19	-0.0583	0.636	-0.0617	-0.166	0.103	0.12
CCAACAT	0.103	0.1	0.263	-0.305	-0.0432	0.458	0.141	0.117	0.092	0.186
TCCAATG	0.021	-0.0217	-0.254	-0.428	0.0372	-0.906	0.113	-0.0275	0.136	-0.0484
CCCTGAA	-0.127	0.0513	0.089	-0.153	0.00392	-0.522	-0.023	-0.0909	0.0158	0.0722
CAGTGAT	0.0545	0.00549	0.254	1.54	-0.0201	1.81	-3.22	0.136	-0.153	0.0803
CTGTAGC	0.0767	-0.0489	-0.396	-0.568	-0.116	-0.871	0.148	-0.0855	-0.0237	0.0659
CCCCAGG	-0.0268	-0.168	0.316	0.93	-0.00751	0.548	0.0149	0.00665	-0.203	-0.128
ATCATAC	0.117	0.0251	-0.109	-0.85	0.0569	-0.988	0.114	0.00348	-0.0757	0.0861
TAATCAC	-0.101	0.000925	-3.5	-2.98	-0.156	-2.44	-0.208	-3.41	-0.0155	-3.23
CCGGAGA	0.00377	-0.0466	0.0711	0.474	-0.124	0.326	-0.0985	-0.0318	-0.0601	-0.141
ACCGAAA	-0.108	-0.0674	-0.139	-0.0534	0.0138	-0.775	0.0978	-0.0466	0.000261	-0.039
AACGTGT	0.0997	0.105	-0.143	-0.325	0.0659	-0.0481	0.109	0.0759	0.107	0.0499
CCTGTTA	0.0282	0.0228	-0.0942	-1.22	0.113	-0.458	-0.0209	-0.0078	-0.175	0.00689
AGGTATA	-0.0364	-0.0366	0.0516	-0.275	-0.033	0.627	-0.168	0.0285	-0.0024	0.0445
CAGGTTA	-0.0146	-0.101	0.141	-0.0261	-0.13	0.895	-0.2	-0.0917	-0.0973	-0.0553
GGTACAC	0.0312	0.155	0.814	1.82	0.127	2.19	0.177	0.0745	0.133	0.248
GACTATT	-2.58	-2.55	-1.16	-2.31	-1.04	1.16	-3.05	-0.557	0.0295	-0.0866
CTCAGGC	-0.0201	0.0523	0.0873	0.381	-0.117	-0.459	0.0592	-0.0618	-0.0881	-0.0137
TGGCACT	0.172	-0.0119	0.496	0.61	-0.119	1.58	0.0599	-0.0972	0.0653	0.168
CTCCGCA	-0.0117	0.087	-0.0485	-0.181	0.0312	-0.61	0.136	0.0087	0.0948	0.112
